Results taken from PubChem BioAssay AID488969 (Vanderbilt High Throughput Screening Facility, 2010).
Whole data set: some 110,000 compounds, median “z-score” near -0.1, cut for the highest 2% near 2. This is one part of the list. Active and inactive are the calls of the source.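 Rule for the calls: active = z-score in the third read window above 3 or below -3; inactive = the rest.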

The molecules below were run against Metabotropic glutamate receptor 8 (Rattus norvegicus) (UniProt P70579) (assay: mGluR8 Gi/Go-coupled signaling modulation – cell-based, rat, thallium flux, HTS, primary screen (AID 488969)). Conditions: HEK293 rat mGluR8, GIRK (G protein-gated inwardly rectifying potassium channel) thallium flux, FluoZin2; at 10 µM; stronger effect = higher value; submaximal glutamate (EC20) added with thallium.
Chain of UniProt P70579 (P70579 whole entry, looked up): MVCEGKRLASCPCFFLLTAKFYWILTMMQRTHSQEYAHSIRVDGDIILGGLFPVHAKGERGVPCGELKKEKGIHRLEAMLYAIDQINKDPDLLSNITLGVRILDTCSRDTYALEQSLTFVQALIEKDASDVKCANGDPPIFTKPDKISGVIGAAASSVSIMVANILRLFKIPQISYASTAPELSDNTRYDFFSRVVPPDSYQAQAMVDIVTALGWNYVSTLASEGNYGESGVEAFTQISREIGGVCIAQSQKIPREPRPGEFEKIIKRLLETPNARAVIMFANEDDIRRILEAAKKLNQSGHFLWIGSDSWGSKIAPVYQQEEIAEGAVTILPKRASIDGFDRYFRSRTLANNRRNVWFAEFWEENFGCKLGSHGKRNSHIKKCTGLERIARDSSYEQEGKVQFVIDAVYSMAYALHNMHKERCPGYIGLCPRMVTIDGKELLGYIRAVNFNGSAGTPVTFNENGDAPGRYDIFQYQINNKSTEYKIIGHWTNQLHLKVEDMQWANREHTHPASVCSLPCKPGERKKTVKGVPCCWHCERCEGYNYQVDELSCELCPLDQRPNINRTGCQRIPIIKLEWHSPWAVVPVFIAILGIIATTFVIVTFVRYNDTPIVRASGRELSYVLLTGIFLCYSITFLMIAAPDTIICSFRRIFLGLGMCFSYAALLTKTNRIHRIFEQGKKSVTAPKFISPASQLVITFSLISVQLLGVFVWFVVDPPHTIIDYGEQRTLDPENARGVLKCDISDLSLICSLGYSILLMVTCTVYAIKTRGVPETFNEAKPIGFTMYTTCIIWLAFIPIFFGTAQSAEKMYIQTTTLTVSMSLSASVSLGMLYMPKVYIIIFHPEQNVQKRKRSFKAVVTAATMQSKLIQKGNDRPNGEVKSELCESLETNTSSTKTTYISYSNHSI
With `Cc1cccc(C)c1NC(=O)CSc1nnc(Cn2nnc(-c3ccccc3)n2)n1-c1ccccc1` the z-score was -0.961.
Work on `COC(=O)c1cc(NC(=O)CN2CCOCC2)cc(C(=O)OC)c1` yielded a z-score of -0.474.
In the case of `Oc1ccc(Br)cc1-c1cc(-c2ccccc2)n[nH]1`, the z-score was -0.0523.
For `COC(=O)c1ccc(CS(=O)(=O)c2ccc(C)cc2)cc1`, the z-score was -0.578.
Work on `CN(C)S(=O)(=O)c1ccccc1C#N` yielded a z-score of 0.372.
`CCOC(=O)c1cc(-c2ccccc2)n(CC(=O)Nc2cccc(OC)c2)c1C` showed a z-score of -0.0973.
In the case of `CC1(C)Cc2c(sc3nn[nH]c(=O)c23)CO1`, the z-score was -0.0436.
In the case of `CCn1c(Cn2nnc(-c3ccccc3)n2)nnc1SCC(=O)Nc1cccc(C)c1C`, the z-score was 0.0396.
`CS(=O)(=O)c1ccc2nc(NC(=O)CN3CCN(Cc4ccccc4)CC3)sc2c1` showed a z-score of 0.494.
`Cc1ccc(C)c(NC(=O)Cn2nc(C(F)(F)F)cc2C2CC2)c1` showed a z-score of -0.0232.
With `Cc1ccc(-c2nc3ccccn3c2NCc2ccc3c(c2)OCO3)cc1` the z-score was -0.47.
`O=C(Cn1cnc([N+](=O)[O-])c1)NC1CCCC1` gave a z-score of -0.0748.
Work on `CC1C/C(=N\NC(=O)CCc2ccc(S(=O)(=O)N3CCOCC3)cc2)CC(C)(C)C1` (stereo unspecified) yielded a z-score of -0.554.
Molecule `COc1cc(C(=O)NCCCN2CCCC2=O)cc(OC)c1OC` has a z-score of 0.0299.
With `CC1(C)Cc2c(sc3nc(-c4ccccc4Cl)n(N)c(=O)c23)CO1` the z-score was -0.232.
`Nc1nc2n(n1)C(c1ccccc1)CC(c1ccc(F)cc1)N2` (stereo unspecified) showed a z-score of 1.08.
With `COc1cc(S(=O)(=O)Nc2ccccn2)ccc1F` the z-score was -0.166.
With `O=C(CCCOc1ccccc1)Nc1nnc(C2CCCO2)s1` (stereo unspecified) the z-score was 1.18.
`O=C(COc1ccc(S(=O)(=O)NC2CCCCC2)cc1)NCc1ccccn1` gave a z-score of 0.101.
With `Brc1ccc(-c2csc(N/N=C/c3ccc4c(c3)OCO4)n2)cc1` the z-score was 0.0227.
In the case of `CCn1nccc1C(=O)Nc1ccc(S(=O)(=O)NC23CC4CC(CC(C4)C2)C3)cc1`, the z-score was 0.141.
`COc1ccc(OCC(=O)Nc2cccc3ncccc23)cc1` showed a z-score of 0.0307.
Work on `Cc1ccc(N(C(=O)C2CCCC2)C2C=CS(=O)(=O)C2)cc1C` (stereo unspecified) yielded a z-score of 0.364.
With `Cc1ccc2nc(-c3ccc(NC(=O)CN4C(=O)NC(C)(c5ccc(OC(F)F)cc5)C4=O)cc3)sc2c1` (stereo unspecified) the z-score was -0.0637.
Work on `CCCCc1c(CCC)c(=N)c2ccccc2n1C` yielded a z-score of -0.341.
With `NC(=O)CSc1ncc(-c2ccccc2)[nH]1` the z-score was 0.142.
In the case of `CCOC(=O)c1c(C)n(C)c2ccc(OCCN(C)C)cc12`, the z-score was 0.165.
For `COc1cc(/C=N/NC(=O)c2cccnc2)ccc1OC(=O)c1ccco1`, the z-score was 0.0474.
`O=C1OCc2cc(NC(=O)C3CCCO3)ccc21` (stereo unspecified) showed a z-score of 0.444.
`Cc1cccc(C)c1NC(=O)Cn1nc(-c2ccccc2)nc1-c1ccccc1` showed a z-score of -0.0804.
Work on `CS(=O)(=O)CCC(C(=O)OCc1ccc(Br)cc1)N1C(=O)c2ccccc2C1=O` (stereo unspecified) yielded a z-score of 0.133.
`COc1ccc(OC)c(NC(=O)CCN2CCCCCC2)c1` was tested, and the z-score was 0.195.
Molecule `Cc1c(Br)c([N+](=O)[O-])nn1CCCC(=O)Nc1sc2c(c1C#N)CCC2` has a z-score of -0.0362.
`Cc1ccc(S(=O)(=O)Oc2ccc3c(c2)O/C(=C\c2cccnc2)C3=O)cc1` gave a z-score of 0.0523.
`CCc1onc(C)c1C(=O)Nc1cc(C)ccc1OC` showed a z-score of -0.121.
`COc1ccc(-c2cc(=O)oc3cc(OC(C)C(=O)O)ccc23)cc1` (stereo unspecified) gave a z-score of -0.106.
Work on `COc1ccc(C2SCC(=O)N2c2c(C)n(C)n(-c3ccccc3)c2=O)c(OC)c1` (stereo unspecified) yielded a z-score of -0.0885.
`COc1cc2c(C(=O)N3CCN(Cc4ccc5c(c4)OCO5)CC3)cn(C)c(=O)c2cc1OC` was tested, and the z-score was -0.00768.
`Cc1ccc(C2(C)NC(=O)N(CC(=O)c3ccc(Cl)s3)C2=O)cc1` (stereo unspecified) showed a z-score of 0.0536.
`CCOC(=O)c1cccc(-c2ccc(C=O)o2)c1` showed a z-score of -0.619.
In the case of `CC(C)(C)N1CC(COc2ccccc2)OC1=O` (stereo unspecified), the z-score was -0.641.
`O=C(Cc1ccccc1)NC1CCS(=O)(=O)C1` (stereo unspecified) was tested, and the z-score was -0.249.
`O=C(CSc1nn(-c2ccc(F)cc2)c(=S)s1)NC(=O)NCc1ccco1` was tested, and the z-score was -0.468.
`Cc1ccc(CSCCNC(=O)c2cccc([N+](=O)[O-])c2)cc1` gave a z-score of -0.0559.
For `CCCCC(=O)Nc1ccc(NC(=O)c2cccs2)cn1`, the z-score was 0.308.
Work on `COc1cc(/C=N/NC(=O)CSCc2ccc([N+](=O)[O-])cc2)cc(OC)c1OC` yielded a z-score of -0.207.
Work on `COc1cc(C2NC(=O)NC(C)=C2C(=O)OCc2ccc(C)cc2)cc(OC)c1O` (stereo unspecified) yielded a z-score of -0.236.
`O=C(NCCc1ccc(F)cc1)c1cccs1` gave a z-score of 0.0095.
In the case of `Cc1ccc(CNC(=O)CCS(=O)(=O)c2ccc(Br)s2)cc1`, the z-score was -0.425.
`COCCNC(=O)CSc1nc2ccc(N3CCOCC3)cc2c(=O)n1Cc1ccc(OC)cc1` showed a z-score of 0.698.
`COC(=O)CSc1nnc(-c2ccc3c(c2)OCO3)n1C` showed a z-score of 0.135.
In the case of `O=C(Cn1cnc2cc([N+](=O)[O-])ccc2c1=O)NC(c1ccccc1)c1ccccc1`, the z-score was -0.112.
`CC1CN(C)C(c2ccccc2)C(C)C12NC(=O)NC2=O` (stereo unspecified) was tested, and the z-score was 0.0301.
In the case of `CC(=O)c1cccc(NC(=O)C2CCN(S(C)(=O)=O)CC2)c1`, the z-score was 0.0121.
In the case of `CCn1ncc(Br)c1C(=O)Nc1sc2c(c1C(N)=O)CCC2`, the z-score was -0.182.
Molecule `COCCn1c(COc2ccc(C)cc2)nc2ccccc21` has a z-score of -0.333.
With `CCOC(=O)/C=C1\SCC(=O)N1Cc1nnc(-c2ccccc2Br)o1` the z-score was -0.304.
For `CCCc1cc(=O)[nH]c(SCC(=O)Nc2ccc(OC(F)F)cc2)n1`, the z-score was -0.196.
With `COc1ccc(N2CSC3=C(C#N)C(c4cccc(OC)c4OC)CC(=O)N3C2)cc1` (stereo unspecified) the z-score was -0.281.
`Cc1ccc(C)c(C(=O)N(Cc2nc(-c3ccc(Cl)cc3)no2)C(C)C)c1` showed a z-score of 0.0567.
In the case of `COc1cc([N+](=O)[O-])ccc1NC(=S)Nc1cc(C(=O)OC(C)C)cc(C(=O)OC(C)C)c1`, the z-score was -0.119.
Molecule `Cc1cc(C(=O)OCC(=O)Nc2ccccc2[N+](=O)[O-])c2ccccc2n1` has a z-score of -0.302.
In the case of `CCCCCCn1c(CN2CCN(C(=O)OCC)CC2)nc2c1c(=O)n(C)c(=O)n2C`, the z-score was -0.0755.
`CCOC(=O)Cc1csc(NC(=O)c2csc(C)c2)n1` was tested, and the z-score was -0.512.
`Cc1ccccc1C(=O)NNC(=O)c1ccc(F)cc1` was tested, and the z-score was 0.0481.
In the case of `Cc1ccc(-n2c(C)cc(=O)cc2C)c(C)c1`, the z-score was -0.22.
`O=C(Cc1ccc(F)cc1)c1ccc(O)cc1O` gave a z-score of -0.32.
`Cc1sc2nc(C(C)C)nc(SCC(=O)N3c4ccccc4CC3C)c2c1C` (stereo unspecified) was tested, and the z-score was active: 10.2.
In the case of `COc1cc(NC(=S)NCCC(c2ccccc2)c2ccccc2)c(OC)cc1Cl`, the z-score was 1.15.
Molecule `Cc1ccc(-c2[nH]nc3c2C(c2ccsc2)C(C#N)=C(N)O3)cc1` (stereo unspecified) has a z-score of -0.354.
Molecule `Nc1nc(-c2ccc(F)cc2)cc(C(F)(F)F)n1` has a z-score of -0.44.
In the case of `COc1ccc(C(=O)NN=C(Cc2ccccc2)Cc2ccccc2)cc1OC`, the z-score was -0.165.
In the case of `Oc1ccc(N=Nc2n[nH]c(-c3ccc(Cl)cc3)n2)cc1`, the z-score was 0.526.
`CCCCCC(=O)NC(=S)NNC(=O)c1ccc([N+](=O)[O-])cc1` was tested, and the z-score was 2.66.
Work on `Cc1ccc(Cn2c(=O)sc3ccccc3c2=O)cc1` yielded a z-score of 0.0456.
With `CCCCNC(=O)c1c(N)n(/N=C/c2ccccn2)c2nc3ccccc3nc12` the z-score was -0.0364.
Work on `COC(=O)c1ccc(CSc2nc(N)cc(N)n2)cc1` yielded a z-score of 0.138.
For `Cc1ccc(NC(=O)NCCCc2ccccc2)cc1`, the z-score was -0.0756.
For `Cc1ccc(/C=C/C(=O)c2ccccc(=O)c2O)cc1C`, the z-score was active: 5.65.
For `Cc1ccc(NC(=O)CSc2ncc(-c3ccccc3)n2C(=O)c2ccccc2)cc1`, the z-score was -0.138.
`Cc1cccc(C(=O)/C=C2/c3ccccc3CC(C)(C)N2C)c1` gave a z-score of -0.509.
Molecule `CCOc1ccc2c(c1)-c1c(ssc1=S)C(C)(C)N2` has a z-score of 0.474.
`CCCCN(Cc1ccccc1)C(=O)c1cnc2n(c1=O)CCS2` gave a z-score of -0.308.
In the case of `Cc1ccc(-n2c(NN)nc3ccccc3c2=O)c(C)c1`, the z-score was 0.522.
For `CCN(c1cccc(C)c1)S(=O)(=O)c1ccc2[nH]c(=O)c(=O)[nH]c2c1`, the z-score was 0.0977.
With `CC(CCc1ccccc1)NC(=O)C(Cc1ccccc1)NS(=O)(=O)c1cccs1` (stereo unspecified) the z-score was -0.446.
With `CN(CC(=O)Nc1ccc2c(c1)OCCO2)S(=O)(=O)c1ccc(Br)s1` the z-score was -0.249.
Work on `O=c1[nH][nH]c(C(F)(F)F)c1C=Nc1ccccc1Cl` yielded a z-score of 0.0515.
`CCn1c(O)c(N=NC(=O)Cn2ccc(C(F)(F)F)n2)c2ccccc21` showed a z-score of 0.53.
`COc1ccc(/C=C2/SC(=O)N(CCC(=O)Nc3ccc(S(=O)(=O)Nc4nccs4)cc3)C2=O)cc1` showed a z-score of -0.507.
`c1csc(CNc2nc3ccccc3n2CCN2CCOCC2)c1` showed a z-score of 0.928.
Molecule `Cc1ccc2c(CC(=O)Nc3nc(C)cs3)coc2c1` has a z-score of 0.287.
`Cn1cc(Cl)c(C(=O)NC(=S)Nc2sc3c(c2C#N)CCCCC3)n1` was tested, and the z-score was -0.554.
For `COC(=O)c1ccc(-n2nnnc2SCC(=O)NCc2cccc(C(=O)O)c2)cc1`, the z-score was -0.61.
In the case of `Cc1ccc(-n2nnc3c(=O)n(CC(=O)NCc4ccco4)cnc32)cc1`, the z-score was -0.615.
For `Cc1c(OCC(=O)OC(C)C)ccc2c3c(c(=O)oc12)CCC3`, the z-score was 0.0982.
With `COc1ccc(-c2cc(C(F)(F)F)n3nc(C(=O)O)cc3n2)cc1OC` the z-score was -0.445.
With `O=C(NNc1ccccc1[N+](=O)[O-])Nc1ccccc1` the z-score was -0.0971.
`Cc1cc(C)c(C#N)c(SCSCc2ccccc2)n1` gave a z-score of -0.445.
With `C=CCSc1nnc(-c2cccnc2)o1` the z-score was -0.603.
With `Cc1ccccc1NS(=O)(=O)c1cc(C(=O)Nc2cccc(N(C)S(C)(=O)=O)c2)ccc1C` the z-score was -0.267.
`COC(=O)C(NC=O)C(O)(Cc1ccccc1)C(F)(F)F` (stereo unspecified) showed a z-score of -0.199.
`CCC(=O)Nn1cnc2c(c1=O)C1(CCCCC1)Cc1ccccc1-2` gave a z-score of -0.521.
With `CCn1c(C)nc2cc(C(=O)NNC(=S)Nc3ccc(Cl)cc3Cl)ccc21` the z-score was -0.372.
Work on `COc1cccc2cc(C(=O)N3CCN(c4ccc(C)cc4C)CC3)c(=O)oc12` yielded a z-score of -1.05.
`CS(=O)(=O)NN1C(=O)c2ccccc2NC1c1c[nH]c2ccccc12` (stereo unspecified) was tested, and the z-score was 0.0459.
`ON1C2CCCCC2N(O)C1c1ccccc1C(F)(F)F` (stereo unspecified) gave a z-score of -0.161.
In the case of `CCN(CCO)c1ncnc2c1sc1nc(C(C)C)c3c(c12)CC(C)(C)OC3`, the z-score was -0.241.
`COc1cc(CN2CC(C)OC(C)C2)cc(OC)c1` (stereo unspecified) showed a z-score of 0.361.
In the case of `COCCNC(=O)CSCc1nc(-c2ccc(SC)cc2)oc1C`, the z-score was -0.24.
In the case of `O=C(COC(=O)CCc1c[nH]c(=O)[nH]1)Nc1cccc(Cl)c1`, the z-score was -0.0238.
